This is an account of results in publication PMC4585734.

These are yes or no findings as the source states them, for the method shown. In cells and extracts the contact can be indirect. Some entries that bind do so weakly or less than the wild type. For part of these data: Where a sequence is shown, tags or fusion partners need not be part of it.

Assay [1] addresses T1, FLAG-tagged RBM45 (full-length FLAG-RBM45) (human) (UniProt Q8IUH3).
T1 sequence: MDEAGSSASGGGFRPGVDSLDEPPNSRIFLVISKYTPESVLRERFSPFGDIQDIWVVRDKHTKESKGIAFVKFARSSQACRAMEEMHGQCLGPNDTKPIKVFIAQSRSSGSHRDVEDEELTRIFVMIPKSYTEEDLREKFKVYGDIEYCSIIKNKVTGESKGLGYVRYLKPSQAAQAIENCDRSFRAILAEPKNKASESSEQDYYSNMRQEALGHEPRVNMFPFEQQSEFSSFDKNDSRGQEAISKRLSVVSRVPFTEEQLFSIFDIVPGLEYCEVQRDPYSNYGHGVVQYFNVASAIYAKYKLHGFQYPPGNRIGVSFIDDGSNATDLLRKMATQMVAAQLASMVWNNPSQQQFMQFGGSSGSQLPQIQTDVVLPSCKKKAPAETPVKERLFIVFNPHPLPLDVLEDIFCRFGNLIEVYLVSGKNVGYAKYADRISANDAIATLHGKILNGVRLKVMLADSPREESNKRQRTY
In words: co-IP; HA-RBM45 constructs transfected into HEK293 stably expressing full-length FLAG-RBM45; FLAG-IP; immunoblot with HA antibody. (In general: In western blotting, separated proteins are transferred to a membrane and probed.)

The target of assay [2] is HA-RBM45 deletion construct D4 (Δ286–318) (human) (UniProt Q8IUH3). In words: cross-linking; in vivo DSS cross-linking (1 mM DSS for 10 minutes, room temperature, PBS) of HEK293 expressing HA-RBM45 constructs; SDS-PAGE and immunoblot.
Assay [3] deals with HA-RBM45 deletion construct D5 (Δ258–318) (human) (UniProt Q8IUH3). The description is as above.
In assay [4] the target is HA-RBM45 deletion construct D3 (Δ258–279) (human) (UniProt Q8IUH3). Described as above.
Assay [5] concerns the target endogenous RBM45 (HEK293) (human (endogenous in HEK293)) (UniProt Q8IUH3). In words: cross-linking; DSS treatment of HEK293 and SK-N-SH cells, endogenous RBM45 (Supplementary Fig. S2d).
Assay [6] has as its target T1, FLAG-tagged RBM45 (full-length FLAG-RBM45) (human). In words: co-IP; FLAG-RBM45 expressed in HEK293; whole cell lysate; IP with FLAG antibody or RBM45 C-terminal antibody; immunoblot with antibody against an internal RBM45 epitope (216-265).
For assay [7] the target is unchanged. In words: co-IP; FLAG-RBM45 and untagged rRBM45 co-expressed in HEK293; nuclear or cytoplasmic fraction; FLAG IP; KCl of the cytoplasmic fraction adjusted to 430 mM.
For assay [8], the target named is endogenous RBM45 (SK-N-SH) (human (endogenous in SK-N-SH)) (UniProt Q8IUH3). In words: cross-linking; DSS treatment of HEK293 and SK-N-SH cells, endogenous RBM45 (Supplementary Fig. S2d).

B1: HA-RBM45 deletion construct D2 (Δ230–234) (protein, UniProt Q8IUH3-3)
chain: MDEAGSSASGGGFRPGVDSLDEPPNSRIFLVISKYTPESVLRERFSPFGDIQDIWVVRDKHTKESKGIAFVKFARSSQACRAMEEMHGQCLGPNDTKPIKVFIAQSRSSGSHRDVEDEELTRIFVMIPKSYTEEDLREKFKVYGDIEYCSIIKNKVTGESKGLGYVRYLKPSQAAQAIENCDRSFRAILAEPKNKASESSEQDYYSNMRQEALGHEPRVNMFPFEQQSEKNDSRGQEAISKRLSVVSRVPFTEEQLFSIFDIVPGLEYCEVQRDPYSNYGHGVVQYFNVASAIYAKYKLHGFQYPPGNRIGVSFIDDGSNATDLLRKMATQMVAAQLASMVWNNPSQQQFMQFGGSSGSQLPQIQTDVVLPSCKKKAPAETPVKERLFIVFNPHPLPLDVLEDIFCRFGNLIEVYLVSGKNVGYAKYADRISANDAIATLHGKILNGVRLKVMLADSPREESNKRQRTY
For B1, the binding entry in assay [1] is recorded as “binds”.

B2: HA-RBM45 deletion construct D4 (Δ286–318) (protein, UniProt Q8IUH3-3)
chain: MDEAGSSASGGGFRPGVDSLDEPPNSRIFLVISKYTPESVLRERFSPFGDIQDIWVVRDKHTKESKGIAFVKFARSSQACRAMEEMHGQCLGPNDTKPIKVFIAQSRSSGSHRDVEDEELTRIFVMIPKSYTEEDLREKFKVYGDIEYCSIIKNKVTGESKGLGYVRYLKPSQAAQAIENCDRSFRAILAEPKNKASESSEQDYYSNMRQEALGHEPRVNMFPFEQQSEFSSFDKNDSRGQEAISKRLSVVSRVPFTEEQLFSIFDIVPGLEYCEVQRDPYSNYGFIDDGSNATDLLRKMATQMVAAQLASMVWNNPSQQQFMQFGGSSGSQLPQIQTDVVLPSCKKKAPAETPVKERLFIVFNPHPLPLDVLEDIFCRFGNLIEVYLVSGKNVGYAKYADRISANDAIATLHGKILNGVRLKVMLADSPREESNKRQRTY
For the molecule B2, the binding result in assay [1] and in assay [2] was “no binding” throughout.

B3: HA-RBM45 deletion construct D5 (Δ258–318) (protein, UniProt Q8IUH3-3)
chain: MDEAGSSASGGGFRPGVDSLDEPPNSRIFLVISKYTPESVLRERFSPFGDIQDIWVVRDKHTKESKGIAFVKFARSSQACRAMEEMHGQCLGPNDTKPIKVFIAQSRSSGSHRDVEDEELTRIFVMIPKSYTEEDLREKFKVYGDIEYCSIIKNKVTGESKGLGYVRYLKPSQAAQAIENCDRSFRAILAEPKNKASESSEQDYYSNMRQEALGHEPRVNMFPFEQQSEFSSFDKNDSRGQEAISKRLSVVSRVPFTFIDDGSNATDLLRKMATQMVAAQLASMVWNNPSQQQFMQFGGSSGSQLPQIQTDVVLPSCKKKAPAETPVKERLFIVFNPHPLPLDVLEDIFCRFGNLIEVYLVSGKNVGYAKYADRISANDAIATLHGKILNGVRLKVMLADSPREESNKRQRTY
Regarding B3, the binding entry in assay [1] and in assay [3] was “no binding” each time.

B4: HA-RBM45 deletion construct D3 (Δ258–279) (protein, UniProt Q8IUH3-3)
chain: MDEAGSSASGGGFRPGVDSLDEPPNSRIFLVISKYTPESVLRERFSPFGDIQDIWVVRDKHTKESKGIAFVKFARSSQACRAMEEMHGQCLGPNDTKPIKVFIAQSRSSGSHRDVEDEELTRIFVMIPKSYTEEDLREKFKVYGDIEYCSIIKNKVTGESKGLGYVRYLKPSQAAQAIENCDRSFRAILAEPKNKASESSEQDYYSNMRQEALGHEPRVNMFPFEQQSEFSSFDKNDSRGQEAISKRLSVVSRVPFTPYSNYGHGVVQYFNVASAIYAKYKLHGFQYPPGNRIGVSFIDDGSNATDLLRKMATQMVAAQLASMVWNNPSQQQFMQFGGSSGSQLPQIQTDVVLPSCKKKAPAETPVKERLFIVFNPHPLPLDVLEDIFCRFGNLIEVYLVSGKNVGYAKYADRISANDAIATLHGKILNGVRLKVMLADSPREESNKRQRTY
On to B4, for which, in assay [4], the binding result was “no binding”.

B5: HA-RBM45 deletion construct D1 (Δ212–216) (protein, UniProt Q8IUH3-3)
chain: MDEAGSSASGGGFRPGVDSLDEPPNSRIFLVISKYTPESVLRERFSPFGDIQDIWVVRDKHTKESKGIAFVKFARSSQACRAMEEMHGQCLGPNDTKPIKVFIAQSRSSGSHRDVEDEELTRIFVMIPKSYTEEDLREKFKVYGDIEYCSIIKNKVTGESKGLGYVRYLKPSQAAQAIENCDRSFRAILAEPKNKASESSEQDYYSNMRQEPRVNMFPFEQQSEFSSFDKNDSRGQEAISKRLSVVSRVPFTEEQLFSIFDIVPGLEYCEVQRDPYSNYGHGVVQYFNVASAIYAKYKLHGFQYPPGNRIGVSFIDDGSNATDLLRKMATQMVAAQLASMVWNNPSQQQFMQFGGSSGSQLPQIQTDVVLPSCKKKAPAETPVKERLFIVFNPHPLPLDVLEDIFCRFGNLIEVYLVSGKNVGYAKYADRISANDAIATLHGKILNGVRLKVMLADSPREESNKRQRTY
For the molecule B5, the binding entry in assay [1] was “binds”.

B6: endogenous RBM45 (HEK293) (protein, UniProt Q8IUH3-3 1-474)
chain: T1 sequence
Regarding B6, the binding entry in assay [5] and in assay [6] was “binds” in each case.

B7: recombinant untagged-RBM45 (protein, UniProt Q8IUH3-3 1-474)
chain: T1 sequence
Turning to B7, the binding result in assay [7] is reported as “binds”.

B8: endogenous RBM45 (SK-N-SH) (protein, UniProt Q8IUH3-3 1-474)
chain: T1 sequence
Turning to B8, the binding result in assay [8] was “binds”.

B9: HA-tagged full-length RBM45 (protein, UniProt Q8IUH3-3 1-474)
chain: T1 sequence
For B9, in assay [1], the binding entry is listed as “binds”.
